According to the supplement of paper PMC12217912:
Some of the results follow. Sequences were assembled here from the parent chain. Inactive controls read about 0.05.

B1: TEV protease; numbered along this chain (parent)
chain: MGESLFKGPRDYNPISSSICHLTNESDGHTTSLYGIGFGPFIITNKHLFRRNNGTLVVQSLHGVFKVKDTTTLQQHLVDGRDMIIIRMPKDFPPFPQKLKFREPQREERICLVTTNFQTKSMSSMVSDTSCTFPSGDGIFWKHWIQTKDGQCGSPLVSTRDGFIVGIHSASNFTNTNNYFTSVPKNFMELLTNQEAQQWVSGWRLNADSVLWGGHKVFMVKPEEPFQPVKEATQL

Variants of: B1
Assay: raw area under fraction-flipped curve 0-4 h after induction (AUC4h, not background-subtracted), DNA-recorder readout of cleavage of the substrate (dimensionless); higher = more cleavage of the substrate by the protease variant
Conditions: temperature: 34 °C; time window: 0-4 h after rhamnose induction
Method: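 In vivo DNA recorder in E. coli TOP10(DE3) ΔrhaA at 34 °C. Each TEVp single-site mutant (parent TEVp 0) is paired with a single-site variant of the 7-mer TEVs (canonical ENLYFQ|S). The substrate sits between flexible linkers in a Bxb1-sfGFP-TEVs-SsrA fusion, so cleavage stabilises Bxb1 and speeds flipping of a recombination array, read by NGS. The value is the raw area under the fraction-flipped curve over 0-4 h after rhamnose induction (AUC4h), with ≥20 reads per time point. It is not background-subtracted; inactive controls average about 0.047.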
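Note: Bxb1 expression induced with 0.2% (w/v) L-rhamnose at OD600 near 0.5, cultures sampled hourly, flipped fraction per protease–substrate barcode pair counted by paired-end Illumina sequencing.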

Variant	area with substrate ENLAFQS	area with substrate ENLDFQS	area with substrate ENLFFQS	area with substrate ENLHFQS	area with substrate ENLIFQS	area with substrate ENLNFQS	area with substrate ENLQFQS	area with substrate ENLSFQS	area with substrate ENLTFQS	area with substrate ENLWFQS	area with substrate ENLEFQS	area with substrate ENLLFQS	area with substrate ENLPFQS	area with substrate ENLCFQS	area with substrate ENLKFQS	area with substrate ENLRFQS	area with substrate ENLVFQS	area with substrate ENLGFQS	area with substrate ENLMFQS
MGESLFKGPRDYNPISSSICHLTNESDGHTTSLYGIGFGPFIITNKHLFRRNNGTLVVQSLHGVFKVKDTTTLQQHLVDGRDMIIIRMPKDFPPFPQKLKFREPQREERICLVTTNFQTKSMSSMVSDTSCTFPSGDGIFWKHWIWTKDGQCGSPLVSTRDGFIVGIHSASNFTNTNNYFTSVPKNFMELLTNQEAQQWVSGWRLNADSVLWGGHKVFMVKPEEPFQPVKEATQL [Q146W]	0.0599	0.0525	0.102	0.0647	0.102	0.0523	0.0699	0.0675	0.0484	0.0708									
MGESLFKGPRDYNPISSSICHLTNESDGHTTSLYGIGFGPFIITNKHLFRRNNGTLVVQSLHGVFKVKDTTTLQQHLVDGRDMIIIRMPKDFPPFPQKLKFREPQREERICLVTTNFQTKSMSSMVSDTSCTFPSGDGIFWKHWIFTKDGQCGSPLVSTRDGFIVGIHSASNFTNTNNYFTSVPKNFMELLTNQEAQQWVSGWRLNADSVLWGGHKVFMVKPEEPFQPVKEATQL [Q146F]	0.0678	0.0808	0.0789		0.071	0.0601				0.0678	0.0614	0.0863	0.0692						
MGESLFKGPRDYNPISSSICHLTNESDGHTTSLYGIGFGPFIITNKHLFRRNNGTLVVQSLHGVFKVKDTTTLQQHLVDGRDMIIIRMPKDFPPFPQKLKFREPQREERICLVTTNFQTKSMSSMVSDTSCTFPSGIGIFWKHWIQTKDGQCGSPLVSTRDGFIVGIHSASNFTNTNNYFTSVPKNFMELLTNQEAQQWVSGWRLNADSVLWGGHKVFMVKPEEPFQPVKEATQL [D137I]	0.077	0.0661	0.0812	0.0595		0.0666		0.0552					0.0638	0.0912	0.0686	0.0767	0.0695		
MGESLFKGPRDYNPISSSICHLTNESDGHTTSLYGIGFGPFIITNKHLFRRNNGTLVVQSLHGVFKVKDTTTLQQHLVDGRDMIIIRMPKDFPPFPQKLKFREPQREERICLVTTNFQTKSMSSMVSDTSCTFPSGDGIFWKFWIQTKDGQCGSPLVSTRDGFIVGIHSASNFTNTNNYFTSVPKNFMELLTNQEAQQWVSGWRLNADSVLWGGHKVFMVKPEEPFQPVKEATQL [H143F]	0.064	0.0729	0.106			0.0589					0.0683		0.0639	0.0608					
MGESLFKGPRDYNPISSSICHLTNESDGHTTSLYGIGFGPFIITNKHLFRRNNGTLVVQSLHGVFKVKDTTTLQQHLVDGRDMIIIRMPKDFPPFPQKLKFREPQREERICLVTTNFQTKSMSSMVSDTSCTFVSGDGIFWKHWIQTKDGQCGSPLVSTRDGFIVGIHSASNFTNTNNYFTSVPKNFMELLTNQEAQQWVSGWRLNADSVLWGGHKVFMVKPEEPFQPVKEATQL [P134V]	0.0619	0.062	0.0792	0.0663	0.0616	0.0646	0.0731	0.0863		0.0603	0.0647	0.0921	0.0626		0.0479	0.061	0.0624	0.0667	0.0913
MGESLFKGPRDYNPISSSICHLTNESDGHTTSLYGIGFGPFIITNKHLFRRNNGTLVVQSLHGVFKVKDTTTLQQHLVDGRDMIIIRMPKDFPPFPQKLKFREPQREERICLVTTNFQTKSMSSMVSDTSCTFPSGDGRFWKHWIQTKDGQCGSPLVSTRDGFIVGIHSASNFTNTNNYFTSVPKNFMELLTNQEAQQWVSGWRLNADSVLWGGHKVFMVKPEEPFQPVKEATQL [I139R]	0.0599	0.0584	0.0593	0.085		0.0645	0.0891	0.0613		0.0552	0.0638	0.0601	0.0592		0.068	0.0748	0.0602	0.0325	0.0431
MGESLFKGPRDYNPISSSICHLTNESDGHTTSLYGIGFGPFIITNKHLFRRNNGTLVVQSLHGVFKVKDTTTLQQHLVDGRDMIIIRMPKDFPPFPQKLKFREPQREERICLVTTNFQTKSMSSMVSDTSCTFPSGDGIFWKHWIQHKDGQCGSPLVSTRDGFIVGIHSASNFTNTNNYFTSVPKNFMELLTNQEAQQWVSGWRLNADSVLWGGHKVFMVKPEEPFQPVKEATQL [T147H]	0.0783	0.0644	0.0658	0.059	0.0618	0.0638		0.0656		0.0521	0.0681		0.059	0.0413	0.0592	0.0564	0.0566		
MGESLFKGPRDYNPISSSICHLTNESDGHTTSLYGIGFGPFIITNKHLFRRNNGTLVVQSLHGVFKVKDTTTLQQHLVDGRDMIIIRMPKDFPPFPQKLKFREPQREERICLVTTNFQTKSMSSMVSDTSCTFPSGDGIFWKHWIQAKDGQCGSPLVSTRDGFIVGIHSASNFTNTNNYFTSVPKNFMELLTNQEAQQWVSGWRLNADSVLWGGHKVFMVKPEEPFQPVKEATQL [T147A]	0.0545	0.061	0.0712		0.0601	0.0625	0.0705	0.0463			0.0592	0.0602		0.0457	0.0648	0.0583			0.0772
MGESLFKGPRDYNPISSSICHLTNESDGHTTSLYGIGFGPFIITNKHLFRRNNGTLVVQSLHGVFKVKDTTTLQQHLVDGRDMIIIRMPKDFPPFPQKLKFREPQREERICLVTTNFQTKSMSSMVSDTSCTFPSGDGIFWKHWIQTKDGQNGSPLVSTRDGFIVGIHSASNFTNTNNYFTSVPKNFMELLTNQEAQQWVSGWRLNADSVLWGGHKVFMVKPEEPFQPVKEATQL [C152N]	0.0609	0.0689	0.0642		0.0569	0.07		0.0613					0.0304		0.0524	0.0553	0.0482		
MGESLFKGPRDYNPISSSICHLTNESDGHTTSLYGIGFGPFIITNKHLFRRNNGTLVVQSLHGVFKVKDTTTLQQHLVDGRDMIIIRMPKDFPPFPQKLKFREPQREERICLVTTNFQTKSMSSMVSDTSCTFPSGDKIFWKHWIQTKDGQCGSPLVSTRDGFIVGIHSASNFTNTNNYFTSVPKNFMELLTNQEAQQWVSGWRLNADSVLWGGHKVFMVKPEEPFQPVKEATQL [G138K]	0.0623	0.0688	0.0531			0.0587	0.0767	0.0628		0.0613		0.0694	0.0698		0.0727	0.0599			
